Laboratory results as given in US20130203167A1 (SYRACUSE UNIVERSITY, published 2013).
Values belong to the binder of their own block, whether it stands above or below them.

Legend:
full-length WDR5 [1] = target: T1, full-length WDR5 (UniProt P61964); assay: sedimentation velocity analytical ultracentrifugation, c(s) distribution of the mixture with WDR5
full-length WDR5 [2] = target: T1, full-length WDR5; assay: as above; remark: listed apart in the source
[3] = target: WDR5-RbBP5-Ash2L subcomplex (UniProt P61964; Q15291; Q9UBL3 1-534); assay: sedimentation analysis
full-length WDR5 [4] = target: T1, full-length WDR5; assay: sedimentation velocity analytical ultracentrifugation

binding result (full-length WDR5 [2]): binds
B2: MLL^3745 with S-19 of SEQ ID NO. 26 replaced with alanine (printed as corresponding to S-3762 on MLL1) (enzyme)
chain: not shown

binding result [3]: no binding
B3: MLL^3745(R3765A) (enzyme)
chain: not shown
notes: also called MLL1(R3765A) variant; 26 replaced with alanine

Second part, the binder before the results:

B1: MLL^3745 with E-23 of SEQ ID NO. 26 replaced with alanine (E-3767 on MLL1) (enzyme)
chain: not shown
notes: The result sentence calls this residue 'glutamine'
binding result (full-length WDR5 [1]): binds

B4: MLL^3811, polypeptide construct consisting of […] of MLL1 (enzyme)
chain: not shown
binding result (full-length WDR5 [4]): no binding (tested: 1:1 stoichiometric ratio)
